# PubChem BioAssay AID1345083 (National Center for Advancing Translational Sciences (NCATS), 2018)
# Out of some 94,000 compounds screened, about 6,200 (6.6%) were called active. This list was built around the results that the source calls inconclusive (neither active nor inactive); the mix of calls is not that of the screen. The call rests on the fitted dose curve; in most records, active means well fitted inhibition curve with a large enough effect; inconclusive means small, poorly fitted or top-dose-only effect; inactive means flat fitted curve, though single readings scatter. Potencies of inconclusive entries are doubtful fits and often do not repeat.
# Assay: Cytotoxic Profiling in HEK 293 Cell Line of Diverse Libraries Using Quantitative High-Throughput Screening; further: nearly all actives have a fitted effect of over 60% in size
# Conditions: HEK 293 viability, ATP luminescence (CellTiter-Glo), 48-72 h; series mostly up to 115 µM
# Summary of the method: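 Pintool-delivered compounds were incubated with HEK 293 cells (250 cells/well) at 37 degree Celsius for 48 or 72 hr. ATP-dependent luminescence (CellTiter-Glo) then reported remaining viable cells.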
# Potency means the concentration at half of the fitted maximal effect; tags describe the fitted curve by direction and shape.
row,Compound,Potency
1,FC(F)(F)c1ccc(CN2CCC3(CC2)CC(c2cccc(C(F)(F)F)c2)=NO3)cc1,inactive
2,O=C1OCCN1CCNc1ccc(-c2nc(-c3ccccc3F)no2)cn1,active: 44.7 µM
3,COC[C@H]1CCCN1Cc1cn(-c2ccccc2)nc1-c1ccc(OC)cc1F,"inconclusive: 89.1 µM [inhibitor, single point]"
4,Cc1cccc(N2Cc3c(ncnc3N3CCC(N4CCCCC4)CC3)N(C)CC2=O)c1,inactive
5,COC(=O)[C@@H]1Cc2ncn(Cc3ccc(OC)cc3)c2CN1S(=O)(=O)c1cccc2cccnc12,inactive
6,Cc1cc2nc3n(c(=O)c2n1CC(=O)NCc1ccc(Cl)cc1)CCCCC3,"inconclusive: 89.1 µM [inhibitor, single point]"
7,COc1ccccc1-c1cc2c(ccn2C)c(C(=O)NCc2cnccn2)n1,"inconclusive: 100 µM [inhibitor, partial curve]"
8,Cc1noc(C)c1[S+](=O)([O-])N1CCCC(C(=O)N2CCC(N3CCCC3=O)CC2)C1 (stereo unspecified),inactive
9,O=C1Nc2ccc(-c3cccc(C(F)(F)F)c3)cc2C(=O)N2C[C@H](O)C[C@@H]12,"inconclusive: 112 µM [inhibitor, partial curve, poor fit]"
10,CC(=O)c1ccc(NC(=O)N[C@H]2CO[C@H]3[C@@H]2OC[C@@H]3n2nnnc2Oc2ccc(-n3ccnc3)cc2)cc1,inactive
11,COc1ccc(-c2noc(-c3cccn3CC(=O)Nc3cccc(C#N)c3)n2)cc1F,"inconclusive: 79.4 µM [inhibitor, single point]"
12,O=C(CCC1CCN(S(=O)(=O)c2ccc(F)cc2)CC1)N1CCc2ccccc2C1,"inconclusive: 70.8 µM [inhibitor, partial curve, poor fit]"
13,CCOc1ccccc1C(=O)N[C@@H]1CN(Cc2cccnc2)C[C@H]1CN(C)C,"inconclusive: 56.2 µM [inhibitor, partial curve, poor fit]"
14,CN1CCC(NC(=O)CCC[C@@H]2[C@H]3CCCN4CCC[C@@H](CN2C)[C@@H]34)CC1,inactive
15,COc1ccc(OC)c(NC(=O)C2CCc3nc(N4CCN(C(C)=O)CC4)sc3C2)c1 (stereo unspecified),"inconclusive: 50.1 µM [inhibitor, partial curve, poor fit]"
16,c1cc(-c2nc3c(c(NCCCn4ccnc4)n2)CCNCC3)ccn1,inactive
17,CCc1nnc([C@@H]2CC(F)(F)CN2Cc2cccn2C)o1,"inconclusive: 44.7 µM [inhibitor, partial curve]"
18,COc1ccc(C(=O)N2CCCN(c3cc(-c4ccc(Br)cc4)[nH]n3)CC2)cc1F,active: 39.8 µM
19,Cc1occc1C(=O)N[C@@H]1CN(c2ccncn2)C[C@H]1CN(C)C,inactive
20,N#Cc1ccc(CN2CCn3c(nnc3-c3cccnc3)C2)cc1,inactive
21,CCN1C[C@H]2COc3ccccc3[C@H]2N(C(=O)COC)CCC1=O,"inconclusive: 31.6 µM [inhibitor, partial curve]"

row,Compound,Potency
1,Cc1ccc(OCC(=O)N2CCCC(c3nn(C)c(=O)n3C(C)C)C2)cc1 (stereo unspecified),"inconclusive: 79.4 µM [inhibitor, single point]"
2,COc1ccc(NC(=O)c2ccc3c(c2)N(C)C2CCCCCN2C3=O)cc1Cl (stereo unspecified),active: 44.7 µM
3,Cc1csc(Nc2ccc3ncn(Cc4ccccc4)c(=O)c3n2)n1,"inconclusive: 12.6 µM [inhibitor, full curve, poor fit]"
4,COc1ccc(-c2ccc(C(=O)Nc3ccc(F)cc3)c(Cl)c2)nn1,"inconclusive: 50.1 µM [inhibitor, partial curve, poor fit]"
5,CCN(Cc1ccccc1)C(=O)CCC[C@H]1NC[C@@H]2CC1CN(Cc1ccccc1)C2,"inconclusive: 39.8 µM [inhibitor, partial curve, poor fit]"
6,O=C1COc2ccc(-c3ccsc3)nc2CN1Cc1ccc(C(F)(F)F)cc1,"inconclusive: 100 µM [inhibitor, partial curve, poor fit]"
7,COc1cc(CN2CCN(c3ncnc4[nH]ccc34)CC2CCO)cc(OC)c1 (stereo unspecified),"inconclusive: 22.4 µM [inhibitor, full curve, poor fit]"
8,O=C(NC1CCN(c2cc(-c3ccc(Cl)cc3)[nH]n2)CC1)c1ccc2c(c1)OCO2,"inconclusive: 39.8 µM [inhibitor, partial curve]"
9,COc1cc(F)ccc1-c1nccc2c(=O)cc(-c3cccnc3)oc12,"inconclusive: 126 µM [inhibitor, single point]"
10,O=C1NC2(CCN(C(=O)OCc3ccccc3)C2)N=C1c1ccncc1 (stereo unspecified),"inconclusive: 112 µM [inhibitor, single point]"
11,C#CCN(C)C(=O)c1onc(-c2ccc(Cl)cc2)c1[C@H](C)O,"inconclusive: 112 µM [inhibitor, partial curve]"
12,C[C@H](C(=O)NCCN1CCOCC1)C1CC[C@@]2(C)Cc3sc(CS(=O)(=O)Cc4ccc(F)cc4)nc3[C@@H](C)[C@@H]2[C@H]1O (stereo partly specified),inactive
13,O=C(Nc1ccc(OC(F)(F)F)cc1)N[C@@H]1C=C(C(=O)N[C@H]2CCCNC2=O)C[C@@H](O)[C@@H]1O,inactive
14,O=C(Cc1cccnc1)N1CCCCCCn2c(nnc2-c2ccc(F)cc2)CC1,inactive
15,Cc1ccc2c(c1)[C@@H]1[C@H](CO2)CN(CCC#N)C(=O)CCN1[S+](=O)([O-])c1ccccc1,"inconclusive: 44.7 µM [inhibitor, partial curve, poor fit]"
16,CC(C)C1=NOC2(CCN(Cc3ccc(C(F)(F)F)cc3)C2)C1 (stereo unspecified),"inconclusive: 89.1 µM [inhibitor, partial curve, poor fit]"
17,CNC(=O)[C@@H]1CN(C(=O)c2ccc(C)[nH]c2=O)C[C@H]1c1nc(COC)no1,inactive
18,Cc1nn(CCC#N)c(C)c1[C@@H]1C=C[C@@H](NC(=O)Nc2ccc(Cl)cc2)C1,"inconclusive: 100 µM [inhibitor, partial curve, poor fit]"
19,CC(C)CCN1CCOc2cc(C(=O)NCc3ccccc3)ccc2C1,"inconclusive: 56.2 µM [inhibitor, full curve]"
20,O=C(NCC1CN(C(=O)Cc2cccc(OC(F)(F)F)c2)CC12CN(c1ccccc1)C2)c1ccccc1 (stereo unspecified),"inconclusive: 22.4 µM [inhibitor, full curve]"
